For four compounds, cell count results are on record in the supplement of paper PMC4604168 (melanoma cell lines).

The other results are listed elsewhere or left out. Most values come without repeats; read them as rough.
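Further: cells treated in 1,536-well plates, then fixed and DAPI-stained, with nuclei counted from automated high-throughput microscope images.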

This test has as its system IPC-298. Kind of test: cell count relative to DMSO control; melanoma cells; higher = more viable cells. The settings on record: library dose: standard library concentration; 72 h.
For the compound `CC[C@]1(O)C[C@H]2CN(CCc3c([nH]c4ccccc34)[C@@](C(=O)OC)(c3cc4c(cc3OC)N(C=O)[C@H]3[C@@](O)(C(=O)OC)[C@H](OC(C)=O)[C@]5(CC)C=CCN6CC[C@]43[C@@H]65)C2)C1` [vincristine] + O=S(=O)(c1ccccc1)N(CC(F)(F)F)c1ccc(C(O)(C(F)(F)F)C(F)(F)F)cc1 [T0901317] (first compound 0.0005 µM, partner dose 7 µM), the cell count turned out to be 90.7%.

The compound `Cc1cc(Nc2cc(N3CCN(C)CC3)nc(Sc3ccc(NC(=O)C4CC4)cc3)n2)n[nH]1` [Tozasertib] + COc1ccc(C2=N[C@@H](c3ccc(Cl)cc3)[C@@H](c3ccc(Cl)cc3)N2C(=O)N2CCNC(=O)C2)c(OC(C)C)c1 [Nutlin-3] (first compound 0.03 µM, partner dose 0.5 µM) yielded a cell count of 87.2%.

In turn, `CC[C@]1(O)C[C@H]2CN(CCc3c([nH]c4ccccc34)[C@@](C(=O)OC)(c3cc4c(cc3OC)N(C=O)[C@H]3[C@@](O)(C(=O)OC)[C@H](OC(C)=O)[C@]5(CC)C=CCN6CC[C@]43[C@@H]65)C2)C1` [vincristine] + CS(=O)(=O)c1ccc(C(=O)Nc2ccc(Cl)c(-c3ccccn3)c2)c(Cl)c1 [vismodegib] (first compound 0.0005 µM, partner dose 5 µM) came in with a cell count of 83.1%.

In turn, `CC[C@]1(O)C[C@H]2CN(CCc3c([nH]c4ccccc34)[C@@](C(=O)OC)(c3cc4c(cc3OC)N(C=O)[C@H]3[C@@](O)(C(=O)OC)[C@H](OC(C)=O)[C@]5(CC)C=CCN6CC[C@]43[C@@H]65)C2)C1` [vincristine] + C#Cc1cccc(Nc2ncnc3cc(OCCOC)c(OCCOC)cc23)c1 [erlotinib] (first compound 0.0005 µM, partner dose 4 µM) came in with a cell count of 35.1%.
